Data as given in the RNAGym collection of RNA variant scans (doi:10.1073/pnas.2313332121).
This sample is rich in variants without activity.

B1: TPR 5TU (parent)
chain: GGAUCUUCUCGAUCUAACAAAAAAGACAAAUCUGCCACAAAGCUUGAGAGCAUCUUCGGAUGCAGAGGCGGCAGCCUUCGGUGGCGCGAUAGCGCCAACGUUCUCAACUAUGACACGCAAAACGCGUGCUCCGUUGAAUGGAGUUUAUCAUG

Variants of: B1
Test: polymerase ribozyme fitness, log enrichment relative to wild type (log ratio); higher = more active; in vitro selection for triplet polymerase activity
Outline: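 Input and output libraries were sequenced on Illumina after a single in vitro selection round, run in triplicate on PCR-built, transcribed mutant libraries of each subunit of a heterodimeric triplet polymerase ribozyme. Selection annealed libraries to a biotinylated primer, the partner subunit and triplets, incubated them frozen at −7 °C, then gel-excised extended constructs for streptavidin-bead capture and RT-PCR. Genotypes with ≥10 input reads and ≥1 read per output were kept. Fitness is the logarithm, taken in base 2, of genotype enrichment divided by wild-type enrichment, using inverse-variance-weighted replicate averages.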

| Variant | polymerase ribozyme fitness (log ratio) |
| --- | --- |
| A26G C54U G71U A89C G92A U139A | ≤ -4.2 |
| G25C C76U C93U G136U | ≤ -4.2 |
| A26C A41C C57G | -3.4 |
| A26U A49G C93U G124C U135G A138G | ≤ -4.2 |
| A24U G46A U61A U134A A137C U144A | ≤ -4.2 |
| A26G C75G C93A C125U | ≤ -4.2 |
| A24U G68A | -3.78 |
| A24U G68C | ≤ -4.2 |
| A24U A26U G84A A119G G141U U144G | ≤ -4.2 |
| A26G U33C C85U | ≤ -4.2 |
| A24U C32G C85G | ≤ -4.2 |
| A24U U33C A37U U44A U56A G58C A60G U61A U102C A122U | ≤ -4.2 |
| A24U C51U G59C G83A G84U C131U | -3.74 |
| A26U C35U U55A C96G G124A | ≤ -4.2 |
| A26U G46U A73G U139A G141A | ≤ -4.2 |
| A26U A64U G74A C85G C118G U146G A150U | ≤ -4.2 |
| A24U G46A G68A C79A G84C C87U U134G | ≤ -4.2 |
| G25C C63U A66C A73G G83A A107G A150U | ≤ -4.2 |
| G25C G62U C87A A137C | ≤ -4.2 |
| G25A U56G G88C U134A | ≤ -4.2 |
| A24U C96U G117A G133A U145A | ≤ -4.2 |

| Variant | polymerase ribozyme fitness (log ratio) |
| --- | --- |
| A24U A28U C35U G46U A98U C114U A119G U135C | ≤ -4.2 |
| A26U G34U C75G G94A | ≤ -4.2 |
| A24U A39C A73G C108U | ≤ -4.2 |
| G25U U33A C76U C93G U104G C105U U146A | ≤ -4.2 |
| G25A A26G A40G A47C C85A C116G A119C | ≤ -4.2 |
| G25C A91C A137C | ≤ -4.2 |
| A26G A28C U77C G81U C96U C125U G141U | ≤ -4.2 |
| A26C C57G G80A | -4.09 |
| A26G G34U C87A A89U | ≤ -4.2 |
| A26C C32G C57G | ≤ -4.2 |
| A26C U44A A73U G152A | ≤ -4.2 |
| A26U A47G G65A C69A U82A G88C U127A | ≤ -4.2 |
| G25C A26G U53A G143A | ≤ -4.2 |
| A26G A47G C57U G83C C105G C132U | ≤ -4.2 |
| A26U A29U C57U G94C G117A | ≤ -4.2 |
| G25C A29C C85U A97U A113U C123A A147G | ≤ -4.2 |
| A26G A60U G65A G88U A91U U134A | ≤ -4.2 |
| A26C G83A G86A A98G | ≤ -4.2 |
| A24U C54U C93G G94A C95U A113U C149A | ≤ -4.2 |
| G25U A52G G74A G88A G140A | ≤ -4.2 |
| G25U C54G U82G G92U U148A | ≤ -4.2 |

| Variant | polymerase ribozyme fitness (log ratio) |
| --- | --- |
| G25U A26C A49G U61A C76U U104A C114U A119C | ≤ -4.2 |
| G25C C38A C72G U109G | ≤ -4.2 |
| G25U U31A A73U A107C A113G G141A | ≤ -4.2 |
| G25U G84A C131U G136A U144G | -1.89 |
| A26U C27U A49G G50C G83A A91C G152C | ≤ -4.2 |
| A24U C35U C38G A89U A91U | -3.93 |
| A24U A37C G58A C69U C72A C85A C118A | ≤ -4.2 |
| A24U C27A C38G C79A G83U | ≤ -4.2 |
| A24U U44A C79G G92A C114U U148G | ≤ -4.2 |
| A24U G58C C85U C93G A97G C118U | ≤ -4.2 |
| A26C C57A U135G | ≤ -4.2 |
| G25C C93U | -3.59 |
| A26U C51A C54A C57U U90C C93G | ≤ -4.2 |
| A24U G81U G88A G94C | ≤ -4.2 |
| A24U G86A C103G G117A A120C A138C | ≤ -4.2 |
| A26U C118U | -0.616 |
| A26U C27U G83A G117C C123G G126A C149A | ≤ -4.2 |
| A26U G50U C54U C79G C87G C149A | ≤ -4.2 |
| A26U A49C G68A C129A | ≤ -4.2 |
| G25U U134G G141A | ≤ -4.2 |
| A26G U44A C54U C87A C99U U111G G143U | ≤ -4.2 |

| Variant | polymerase ribozyme fitness (log ratio) |
| --- | --- |
| A26U A29C U101G G133U C149A | ≤ -4.2 |
| G25U A47G A60G C75A A91U A122U G141C A142G | ≤ -4.2 |
| A26C G50U U56A A60C C149G | ≤ -4.2 |
| A26U C75A U82G G92U G100A A107U U144A | ≤ -4.2 |
| A26C A73U C93G C105G G143A U151A | ≤ -4.2 |
| A24U A26U U55C A91G | ≤ -4.2 |
| A24U A30U U77C U144A | ≤ -4.2 |
| A24U G100C U104G | ≤ -4.2 |
| A26G C95U C96U | -4.16 |
| A24U A41C C54U G67U G88A | ≤ -4.2 |
| A26C C27U U53A G59A C95U A97U C118G C131U C132A | ≤ -4.2 |
| A26G C43G A64U U78G C118G A121U U135G A150G | ≤ -4.2 |
| A26G A30C U53A | ≤ -4.2 |
| A26C A40U C85U C96G G143A | ≤ -4.2 |
| A26C A47C U77C U102C G117C | ≤ -4.2 |
| G25U C85U C116G A120U G141C | ≤ -4.2 |
| A26C U55A G71U G80U G88U G117A | ≤ -4.2 |
| A24U A29C C36A A47U G80A C93A C103A | ≤ -4.2 |
| A26U G50A A64G U101G G141A | ≤ -4.2 |
| A26G A60U C118U U134A U146G | ≤ -4.2 |
